Laboratory results taken from PubChem BioAssay AID493208 (National Center for Advancing Translational Sciences (NCATS), 2011).
The whole screen tested about 44,000 compounds, of which about 340 (0.77%) were called active. Roughly 5% stayed inconclusive and do not appear here. Calls come from the whole dose curve; as a rule, active = well fitted inhibition curve with a large enough effect; inconclusive = small, poorly fitted or top-dose-only effect; inactive = flat fitted curve, though single readings scatter. Some of the results follow.

Test: Acumen qHTS Assay for Inhibitors of the mTORC1 Signaling Pathway in MEF (Tsc2-/-, p53-/-) Cells: Sytravon;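 note: plate controls were DMSO for no effect and rapamycin for full effect; nearly all actives have a fitted effect of over 50% in size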
Details: phospho-rpS6 immunofluorescence/PI, 24 h; series mostly up to 38.3 µM; activity change, negative = inhibition: at the top concentration
Procedure, shortened: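 Readout is phospho-S6 Alexa 488 signal normalized to PI per well, reported as % active cells with thresholds set from rapamycin (7.5 nM) and DMSO controls. Cells: Tsc2-/-, p53-/- MEFs, 24 hrs compound at 37 C; PI cell number serves as viability.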

Structure (SMILES)	activity change, negative = inhibition
Cc1ccc(CCNC(=O)c2ccc(NC(=O)N3CC(C)Sc4ccccc43)cc2)cc1 (stereo not given)	inactive: -3%
COC(=O)C1=C(c2ccccc2)c2ccccc2S(=O)(=O)N1CC(=O)Nc1cccc(C(C)=O)c1	inactive: -15.8%
CC(CNC(=O)CN1C(=O)COc2ccc(S(=O)(=O)N3CCCCC3)cc21)c1ccccc1 (stereo not given)	inactive: -0.983%
COc1ccc2c(c1)c1c(c(=O)n(Cc3ccccc3)c(=O)n1Cc1ccc(C)cc1)n2C	inactive: -2.93%
Cc1ccccc1C(=O)Nc1ccc(C(=O)OCc2cc(=O)n3nc(C4CC4)sc3n2)cc1	inactive: 0%
O=C(Nc1ccc(Cl)cc1)C1CCN(S(=O)(=O)c2ccc(Br)s2)CC1	inactive: -4.55%
CC1CN(C(=O)Nc2ccc(C(=O)NCCc3ccccc3Cl)cc2)c2ccccc2S1 (stereo not given)	inactive: 0.486%
CCOc1ccc(NC(=O)CC2C(=O)N(c3cccc(C)c3)C(=O)N2Cc2ccco2)cc1 (stereo not given)	inactive: -5.25%
COc1ccc(-c2cc(C(F)(F)F)n3nc(C(=O)Nc4sc5c(c4C#N)CCC(C)C5)cc3n2)cc1OC (stereo not given)	inactive: -25.5%
CCOC(=O)C1CCN(C(=O)c2cc3ccc4ccc(C)[nH]c4c3n2)CC1	inactive: 3.49%
CCC(C)NC(=O)c1[nH]c2cc(OC)ccc2c1Sc1ccc(C)cc1 (stereo not given)	inactive: 1.33%
CCOC(=O)c1cccc(NC(=O)c2cnn(-c3ccccc3)c2-n2cccc2)c1	inactive: -5.21%
O=C(CSCc1cc(=O)c2ccccc2[nH]1)Nc1cccc(C(F)(F)F)c1	inactive: 0.519%
CC(=O)c1ccc(N2CCN(S(=O)(=O)c3ccc4[nH]c5c(c4c3)CCCCC5)CC2)cc1	inactive: -11.1%
CC(=O)N1c2ccccc2C(=O)C1N1CCN(c2cc(Cl)ccc2C)CC1 (stereo not given)	inactive: -1.98%
CCC1CN(C(=O)Nc2ccccc2C(F)(F)F)c2ccccc2S1 (stereo not given)	inactive: -11.3%
CCC1CN(C(=O)N2CCC(C(=O)N(C)Cc3ccccc3)CC2)c2ccccc2O1 (stereo not given)	inactive: 4.67%
Cc1ccc(CNC(=O)c2cc(S(=O)(=O)N3CCCCC3)cn2C)cc1	inactive: 0.0286%
Cc1ccc2nc(CN3CCN(C(=O)Nc4cccc(C)c4C)CC3)oc2c1	inactive: 19%
COc1ccc(NC(=O)CN2C(=O)CC(c3ccco3)Sc3ccccc32)cc1OC (stereo not given)	inactive: 2.66%

Structure (SMILES)	activity change, negative = inhibition
COC(=O)c1scc(-c2ccc(C)cc2)c1S(=O)(=O)Nc1c(C)cc(C)cc1C	inactive: -0.433%
Cc1nc2c(-c3ccccc3)c(C)[nH]n2c(=O)c1Cc1ccc(C(C)C)cc1	inactive: 4.65%
CCS(=O)(=O)c1ncc(N(Cc2cccc(F)c2)Cc2ccco2)c(C(=O)Nc2ccccc2Cl)n1	inactive: -9.33%
CCOc1ccccc1NC(=O)CCNS(=O)(=O)c1ccc2c(c1)CCN2C(=O)C1CC1	inactive: 1.66%
CCCCS(=O)CC(O)CSc1nc(-c2ccc(OC)cc2)cc(-c2ccccc2)c1C#N (stereo not given)	inactive: 1.75%
Cc1ccc(/C=C/c2onc(C)c2S(=O)(=O)N2CCC(C(=O)NCc3ccc(N(C)C)cc3)CC2)cc1	inactive: 0.355%
COc1ccc(NC(=O)CN(c2ccc(C)cc2)S(=O)(=O)c2cccs2)cc1OC	inactive: -2.88%
CCC(Sc1nnc(-c2ccc(OC)cc2)c(-c2ccc(OC)cc2)n1)C(=O)Nc1cccc(OC)c1 (stereo not given)	inactive: 8.43%
Fc1ccccc1N1CCN(c2c3c(nc4nncn24)CCC3)CC1	inactive: 1.85%
CCCCN(C)C(=O)Cn1ncc2c([nH]c3ccc(C)cc32)c1=O	inactive: 4.66%
Cc1ccc(OCCCC(=O)Nc2sc3c(c2C(N)=O)CCCC3)cc1	inactive: 9.69%
Cn1ncc2c(N3CCN(c4ccccc4Cl)CC3)ncnc21	inactive: -7.69%
COc1ccccc1NC(=O)c1sc2nc(-c3cc4ccccc4oc3=O)[nH]c(=O)c2c1C	inactive: -17.1%
Cc1cc(C)cc(NC(=O)c2cccc(N3CCCS3(=O)=O)c2)c1	inactive: -6.19%
Cc1cccc(C(=O)Nc2nnc(SCc3cc(=O)n4cccc(C)c4n3)s2)c1	inactive: -4.7%
O=C(Cc1ccc(Cl)cc1)NCC(c1cccs1)S(=O)(=O)c1ccc(Cl)cc1 (stereo not given)	inactive: -1.44%
O=C(CSc1nnc(-c2ccccc2F)o1)N1CCc2ccccc21	inactive: -9.75%
COc1ccc(C(=O)N/C(=C\c2cn(S(=O)(=O)N(C)C)c3ccccc23)C(=O)NCCCn2ccnc2)cc1	inactive: 0.357%
Cc1cccc(NC(=O)c2c(NC(=O)c3ccco3)sc3c2CCC(C(C)(C)C)C3)c1 (stereo not given)	inactive: -3.18%
CN(Cc1ccccc1)C(=O)C1CCN(Cc2cc3ccccc3n2Cc2ccccc2)CC1	inactive: -13.2%

Structure (SMILES)	activity change, negative = inhibition
COc1cc(OC)cc(C(=O)Nc2ccc(S(=O)(=O)Nc3onc(C)c3C)cc2)c1	inactive: 3.27%
Cc1ccc(-n2c3c(cc(-c4nc(-c5ccc(Cl)cc5)cs4)c2=O)C(=O)CC(C)(C)C3)cc1	inactive: -20.6%
O=C(Cn1nc(C(F)(F)F)c2c1CCCC2)Nc1ccc(Cl)cc1	inactive: -7.41%
COc1cccc(CNC(=O)CN2C(=O)CCn3nc(-c4cn(C)c5ccccc45)cc32)c1OC	inactive: -7.76%
CCc1ccc(N2C(=O)CSC23C(=O)N(Cc2cccc(F)c2)c2ccccc23)cc1 (stereo not given)	inactive: -0.555%
CCOC(=O)c1cccc(NC(=O)c2cc(-c3ccc(Cl)s3)nc3ccccc23)c1	inactive: -1.3%
O=C(NCCc1ccccc1)c1ccc(CSc2nc3ccncc3n2Cc2ccccc2)cc1	inactive: -6.38%
COc1ccc(NC(=O)Cn2ncc3c([nH]c4ccccc43)c2=O)cc1Cl	inactive: -2.53%
CCN(CC)CCCNC(=O)c1cn(C)c2ccc(S(=O)(=O)N3CCOCC3)cc2c1=O	inactive: -2.36%
Cc1ccc(NC(=O)CSc2nc(C)cc(C)c2C(=O)Nc2cccc(C)c2)cc1	inactive: -0.259%
CCC(C(=O)NCc1ccccc1)n1ncn2c(cc3occc32)c1=O (stereo not given)	inactive: -8.7%
Cc1cccc(C(=O)Nc2cccc(C(=O)OCc3cc(=O)n4ccsc4n3)c2)c1	inactive: 1.95%
CCOC(=O)c1ccc2ncc(C(=O)OCC)c(Nc3ccc(C)c(Br)c3)c2c1	inactive: -11.1%
COc1ccc(Br)cc1CNC(=O)CN1C(=O)CSc2ccc(S(=O)(=O)N3CCOCC3)cc21	inactive: 2.99%
Cc1ccc(NC(=O)c2cc3c(=O)n(Cc4cccnc4)ccc3nc2C)cc1F	inactive: -8.83%
COc1ccc(OC(C)C(=O)NCc2nc(-c3ccc(Cl)cc3)no2)cc1 (stereo not given)	inactive: -27.6%
COc1ccc(NC(=O)CNS(=O)(=O)c2cccs2)c(OC)c1	inactive: -8.26%
COc1ccccc1NC(=O)C1=C(C)Nc2ncnn2C1c1ccccn1 (stereo not given)	inactive: 5.32%
COc1ccc(OC)c(CNC(=O)c2cccc(NC(=O)N3CCSc4ncccc43)c2)c1	inactive: -11.1%
CC(C)Sc1ncc(Cl)c(C(=O)Nc2ccc(S(=O)(=O)N3CCCCC3C)cc2)n1 (stereo not given)	inactive: -0.949%
